In all, about 50,000 compounds went through this assay and about 800 (1.6%) showed an effect of 50% or more. The list shows a part of the results.
target: Bcl-2-like protein 10 (Homo sapiens) (UniProt Q9HD36); assay: Phenotype converters, Bcl-B/TR3 peptide binding displacement, primary biochemical FP (AID 1240); details: GST-Bcl-B / FITC-TR3 peptide fluorescence polarization; stronger effect = higher value; compound at 3.75 mg/L;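 note: 0% = Bcl-B with tracer peptide and DMSO and 100% = tracer peptide lacking Bcl-B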
UniProt Q9HD36, sequence (Q9HD36 whole entry, looked up): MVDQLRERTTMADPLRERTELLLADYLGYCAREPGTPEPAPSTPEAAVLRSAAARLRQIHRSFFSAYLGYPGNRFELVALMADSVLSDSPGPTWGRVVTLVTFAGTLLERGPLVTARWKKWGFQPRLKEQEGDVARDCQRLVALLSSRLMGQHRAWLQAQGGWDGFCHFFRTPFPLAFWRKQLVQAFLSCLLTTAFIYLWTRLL

Compound | displacement
Fc1ccc(CSc2nnc(-c3ccc(Cl)cc3Cl)o2)cc1 | -7.1%
CCOc1ccc(C(=O)Nc2ccccc2C(N)=O)cc1 | -9.4%
CCCC(=O)Nc1ccc(NC(=O)c2ccccc2OC)cc1 | 4.4%
N/C(Cc1ccc([N+](=O)[O-])cc1)=N\OC(=O)COc1ccc2ccccc2c1 | 10.1%
CN(C)CCCNC(=O)Cc1ccc(Cl)cc1 | 0.2%
O=C1N=c2ccccc2=C1c1sc(=S)n(CC2CCCO2)c1O (configuration not stated) | 2.4%
CCOc1cc(OCC)cc(C(=O)Nc2cccc(C(F)(F)F)c2)c1 | 12.9%
CCN1C(=O)/C(=C\c2ccccc2OCc2cccc3ccccc23)SC1=S | 12.9%
COc1ccc(Cl)cc1NC(=O)COc1ccc(Br)cc1C | 5.7%
Cc1cc(N2C(=O)NC(=O)/C(=C\c3cn(C)c4ccccc34)C2=O)ccc1Br | 126%
COc1ccc(/C=N/NC(=O)c2ccc(Br)o2)c(C(=O)O)c1OC | 4%
COc1ccc(CCNC(=O)C2CN(S(=O)(=O)c3ccccc3)CCN2S(=O)(=O)c2ccccc2)cc1OC (configuration not stated) | -2.8%
COc1ccc(-c2nc(-c3ccc(C(=O)O)cc3)[nH]c2-c2ccc(OC)cc2)cc1 | 5.3%
O=c1/c(=C/c2ccc([N+](=O)[O-])cc2)c2cccc3cccc1c32 | 27.9%
CC(=O)c1cccc(NC(=O)Nc2cccc(Cl)c2)c1 | 19.1%
CN(C)C1(C)C(=O)c2ccccc2C1=O | -3.8%
O=C(CCNc1ccc(-c2ccccc2)cc1)c1cccs1 | -15.1%
N#Cc1c(NC(=O)C2CC3CCC2C3)sc2c1CCCCCC2 (configuration not stated) | 12.9%
Cc1c(C)c2c(C)nn(-c3ccccc3)c2[nH]c1=O | -12%
Cc1ccc(C2=NNC(c3ccc(Cl)cc3Cl)S2)cc1 (configuration not stated) | 5.7%
CCC(=O)Nc1c(C)n(C)n(-c2ccccc2)c1=O | 11.9%
O=[N+]([O-])c1ccc(CSc2nnc(-c3ccccc3)c(-c3ccccc3)n2)cc1 | -7.4%
C=CCc1ccccc1OCCOc1c(I)cc(/C=C2/SC(=S)N(C)C2=O)cc1OC | 3.9%
C=CCc1cccc(/C=N/NS(C)(=O)=O)c1O | 10.6%

Compound | displacement
Cc1ccc2ccc(S(=O)(=O)n3nc(C)cc3C)cc2c1 | 11.2%
CCOc1ccc(N2C(=O)CC(N3CCN(c4cccc(Cl)c4)CC3)C2=O)cc1 (configuration not stated) | -0.3%
O=C(Nc1ccc(Cl)cc1)N(Cc1cccs1)Cc1cccs1 | 17.1%
Cc1ccc(-c2ncnn2-c2ccc(Cl)cc2)cc1 | -6%
COCCOC(=O)C1=C(C)NC2=C(C(=O)CC(C)(C)C2)C1c1ccncc1 (configuration not stated) | 0.8%
COc1ccc(NC(=O)c2ccc(CN(c3ccccc3)S(C)(=O)=O)cc2)cc1 | -4.2%
COc1ccc(/C=C/C(=O)Nc2nc3ccccc3n2C)cc1 | -9.1%
CCOC(=O)C1=C(C)NC(=O)NC1c1ccc(OC)c([N+](=O)[O-])c1 (configuration not stated) | -10.4%
CC(=O)Nc1cc(-c2ccccc2Cl)[nH]n1 | 13.1%
COc1ccc(-n2cnc3cc(Nc4nnc(C)c5ccccc45)ccc32)cc1 | 0.8%
O=C(Nc1cccc(NC(=O)c2cccc3ccccc23)c1)c1ccc(Cl)cc1Cl | -19.7%
O=C1N=c2ccccc2=C1c1sc(Nc2ccc(F)cc2)nc1O | 2.8%
CCOc1ccc(/C=C2/Sc3ccccc3C2=O)cc1OCC | 18.3%
CC(C)c1ccc(NC(=O)C2CC3CCC2C3)cc1 (configuration not stated) | -5%
CCOc1ccc(NC(=O)C2=C(C)NC(=O)NC2c2ccc(OC)cc2OC)cc1 (configuration not stated) | 15.4%
COc1ccc(NC(=O)c2ccc(Cl)cc2)cc1Cl | 11.9%
N/C(=N/OC(=O)c1cccc([N+](=O)[O-])c1)c1nonc1N | -6.2%
O=C(Nc1ccc(F)cc1)N1CCc2ccccc21 | 1.4%
COc1ccc2c(c1[N+](=O)[O-])CCC/C2=N/OC(=O)c1cccc2ccccc12 | 8.2%
O=C(Nc1ccc(Br)cn1)c1ccccc1F | -1.8%
Cc1ccccc1OCC(=O)N1CCC(C(N)=O)CC1 | 5.9%
COc1cc2c(cc1NC(=O)c1cccc(Br)c1)oc1ccccc12 | -1.1%
O=C(O)/C=C/c1cccc(N2C(=O)C=CC2=O)c1 | -11.6%
CCc1ccccc1NC(=O)C1COc2ccccc2O1 (configuration not stated) | -9.6%

Compound | displacement
Cc1ccc(-c2nc3cc(Cl)ccc3o2)cc1NC(=O)c1cccc(Cl)c1Cl | -25.5%
Cc1ccc(-c2csc(NC(=O)C34CC5CC(CC(C5)C3)C4)n2)cc1 | 1%
COc1cc(/C=N/Nc2ccnc3cc(Cl)ccc23)ccc1O | 19.5%
O=C(c1ccc(F)cc1)c1ccc(NS(=O)(=O)c2ccc(Cl)cc2)cc1 | 0.8%
O=C(O)c1ccccc1N1C(=O)C2CC=CCC2C1=O (configuration not stated) | 12.7%
CCOc1ccccc1N1CCN(C(=O)C(C)Oc2cccc(Cl)c2)CC1 (configuration not stated) | 44.6%
COc1cc2oc(=O)cc(C)c2cc1C=O | 19.1%
COc1ccccc1N1CCN(S(=O)(=O)c2ccc(Br)cc2)CC1 | -6.5%
CC1(C)N(O)C(c2ccc[nH]2)N(O)C1(C)C | -8.6%
COc1ccc(N2C(=O)/C(=C/c3cn(-c4ccccc4)nc3-c3cccs3)SC2=S)cc1 | 0.4%
O=C1CSC(=S)N1/N=C/c1ccc(Br)cc1 | -13.5%
COc1ccc(C(=O)N2c3ccc(C)cc3C(Nc3ccc(C)cc3)CC2C)cc1 (configuration not stated) | 4.2%
CCOC(=O)C1=C(C)NC2=C(C(=O)CC(C)(C)C2)C1c1ccc(C)cc1C (configuration not stated) | -0.8%
O=[N+]([O-])c1ccc2c(c1Nc1ccccc1)=NC1(CCCCC1)N=2 | 1.5%
CSc1nc(N)c(C#N)c(Cc2ccccc2)c1C#N | 7.2%
CCOC(=O)c1ccccc1NC(=O)c1cc(OC)cc(OC)c1 | 13.6%
C/C(=N\N=C1\NC(=O)C(CC(=O)Nc2cc(Cl)ccc2Cl)S1)C(C)C (configuration not stated) | -17.2%
CCOC(=O)C1=C(O)/C(=C/c2cc(C)n(-c3ccc(C)c(C)c3)c2C)N=C1C | 20.5%
CCN(CC)c1ccc(N2C(=O)/C(=C/c3ccc(OC)c(OC)c3)SC2=S)cc1 | 11.9%
CC(/C=C/c1ccccc1)=NNC(=O)c1ccc(Cl)cc1O | 9.5%
Cc1cc(-c2nc3ccc(Br)cc3c(=O)o2)ccc1[N+](=O)[O-] | 22.4%
CCN(CC)c1ccc(/C=C(\NC(=O)c2ccccc2Cl)C(=O)NN)cc1 | -48.1%
COc1cc(OC)c(NC(=O)c2cccc(F)c2)cc1Cl | 8.3%
NC(=O)C1CCN(C2CC(=O)N(c3ccc(Cl)cc3)C2=O)CC1 (configuration not stated) | -1.4%

Source: PubChem BioAssay AID1240 (Sanford-Burnham Center for Chemical Genomics, 2008)
